Results published in US5856303A, “Peptide, a bronchus-expanding agent, and a blood-flow-improving agent” (Itoham Foods, Inc., priority 1995, dated 1999).
At least one peptide structure holds a part that was inferred or is arguable (an end, a ring closure or a residue). Ends that are not written are not given here.

Experiments:
[1] = system: bronchial smooth muscle; experiment: Bronchus-expanding action: relaxation of carbachol-contracted guinea pig tracheal chain in organ bath; assay type: cell-based, guinea pigs; details: 0.1 μmol/l carbachol-contracted trachea
Excerpt: Purified peptides 1 to 15 obtained in Examples 1 to 15 were examined for their bronchus-expanding action in the following manner and compared with that of VIP and PACAP.
Male guinea pigs each weighing 450 to 500 g were cut at the jugular veins to open the chests, and immediately the tracheae were immediately removed. Their tracheae were immediately placed in a Krebs solution and cut into loops and then formed into a chain by linking the cartilage parts with one another via a steel string. Then, the cartilage parts in the opposite side to the smooth muscular parts were cut such that the smooth muscular parts were attached to one another. The resulting sample was placed in an about 10-ml isothermic organ bath and perpendicularly suspended. The lower part was fixed and the upper part was connected to a grass force transducer with a load of 1.4 g. A gas of 94% oxygen and 6% carbon dioxide was sufficiently blown into this sample while a Krebs solution containing 0.1μ mol/l carbachol was dropped to it at a rate of 0.33 ml/min. to determine relaxation action. Because the relaxation reaction occurs depending on the content of a test sample in this drop solution, this can be used to compare the relaxation action of VIP and PACAP and that of the peptides of the invention on the bronchial smooth muscle.
A solution of each of […], PACAP and the peptides of the invention was prepared in a concentration as high as 100-fold than the final concentration so that its concentration in the organ bath could be adjusted. 30 minutes after the carbachol-containing Krebs solution was dropped, 100 μl of the sample solution was dropped.
It was assumed that the degree of contraction of the smooth muscle is 0 in the absence of carbachol and the degree is 100 in the presence of carbachol. Minimum contraction degree A (i.e. maximum relaxation value) in the presence of the sample was determined, and maximum relaxation degree B was calculated as follows:
Maximum relaxation degree B (%)=100-A
The time required to reach half of the maximum relaxation value (referred to hereinafter as "half-time T") after the addition of the sample was determined.
A change in the relaxation degree of the bronchial smooth muscle with time was determined using each peptide at 3 dosages of 0.3 μM, 1 μM, and 3 μM respectively. The results are shown in the drawings: PACAP in FIG. 1; peptide 5 obtained in Example 5, in FIG. 2; VIP in FIG. 3; and peptide 11 obtained in Example 11, in FIG. 4. The maximum relaxation degree B at a dosage of 3 μM is 75% for peptide 5 and 80% for peptide 11, and half-time T is 360 minutes or more in both the cases.

[2] = system: Wistar male rats; experiment: Blood-flow increasing action in anesthetized rats (femoral artery blood flow, carotid blood pressure); assay type: in vivo; details: 100 pmol/kg intraarterially, right femoral artery
Experimental: Purified peptides 1 to 15 obtained in Examples 1 to 15 were examined for their blood-flow increasing action and compared with those of VIP and PACAP. Wistar male rats each weighing 220 to 250 g were anesthetized by intraperitoneal administration of pentobarbital (25 mg/kg) and fixed on their back. An arterial canula was inserted into the carotid and then connected to a blood-pressure transducer (DX-300, Nippon Koden, Japan) via a doom kit (SCK-512, Nippon Koden) filled with heparin-containing physiological saline (10 U/ml) to measure blood pressure with a strain blood-pressure amplifier (AP-601G, Nippon Koden). Further, a blood-flow measurement probe (FR-030T, Nippon Koden) was attached to the right femoral artery and then connected to an electromagnetic blood-flow meter (MFV-3200, Nippon Koden) to measure blood flow. The dosage of each peptide intraarterially administrated was 100 pmol/kg.

Row | Compound | Half-time T (time required to reach half of the maximum relaxation value) ([1]; 0.3 μM) [min] | Maximum relaxation degree B ([1]; 0.3 μM) [%] | Half-time T (time required to reach half of the maximum relaxation value) ([1]; 1 μM) [min] | Maximum relaxation degree B ([1]; 1 μM) [%] | Half-time T (time required to reach half of the maximum relaxation value) ([1]; 3 μM) [min] | Maximum relaxation degree B ([1]; 3 μM) [%] | Blood Flow (increase in blood flow) [2] [mL/min] | Half-time T (time required to reach half of the maximum relaxation value) ([1]; 3 μM, listed as peptide 11) [min] | Maximum relaxation degree B ([1]; 3 μM, listed as peptide 11) [%] | Half-time T (time required to reach half of the maximum relaxation value) ([1]; 3 μM, listed as peptide 5) [min]
1 | CCCC[C@H](NC(=O)[C@H](CCC(N)=O)NC(=O)[C@H](CCCNC(=N)N)NC(=O)[C@H](CCCNC(=N)N)NC(=O)[C@H](Cc1ccc(O)cc1)NC(=O)[C@H](CCCNC(=N)N)NC(=O)[C@H](CO)NC(=O)[C@H](Cc1ccc(O)cc1)NC(=O)[C@H](CO)NC(=O)[C@H](CC(=O)O)NC(=O)[C@@H](NC(=O)[C@H](Cc1ccccc1)NC(=O)[C@@H](NC(=O)CNC(=O)[C@H](CC(=O)O)NC(=O)[C@H](CO)NC(=O)[C@@H](N)Cc1c[nH]cn1)[C@@H](C)CC)[C@@H](C)O)C(=O)N[C@@H](C)C(=O)N[C@H](C(=O)N[C@@H](CCCNC(=N)N)C(=O)N[C@@H](CCCNC(=N)N)C(=O)N[C@@H](Cc1ccc(O)cc1)C(=O)N[C@@H](CC(C)C)C(=O)N[C@@H](C)C(=O)N[C@@H](C)C(=O)N[C@H](C(=O)N[C@@H](CC(C)C)C(N)=O)C(C)C)C(C)C [Peptide 15] | 100 | 40 | 240 | 80 | > 360 | 85 | 52.63 ± 31.05 |  |  | 
2 | HSDAVFTDNYTRLRRQLAVRRYLNSILNG-NH2 [Peptide 8] | 150 | 50 | 300 | 80 | > 360 | 80 | 53.75 ± 37.31 |  |  | 
3 | HSDAVFTDNYTRLRRQLAVRRYLNSILNGK-NH2 [Peptide 9] | 180 | 55 | 300 | 80 | > 360 | 80 | 54.26 ± 35.95 |  |  | 
4 | HSDAVFTDNYTRLRRQLAVRRYLNSILNGKR [Peptide 13] | 300 | 65 | > 360 | 90 | > 360 | 85 | 56.76 ± 36.15 |  |  | 
5 | HSDAVFTDNYTRLRRQLAVRRYLNSILNGKR-NH2 [Peptide 11] | 300 | 65 | > 360 | 85 | > 360 | 85 | 57.04 ± 38.67 | ≥ 360 | 80 | 
6 | HSDAVFTDNYTRLRRQLAVRRYLNSILNGR-NH2 [Peptide 10] | 200 | 55 | 300 | 80 | > 360 | 80 | 55.86 ± 34.69 |  |  | 
7 | HSDAVFTDNYTRLRRQLAVRRYLNSILNGRR-NH2 [Peptide 12] | 300 | 65 | > 360 | 90 | > 360 | 85 | 57.34 ± 41.88 |  |  | 
8 | HSDGIFTDSYSRYRRQLAVRRYLAAVL-NH2 [Peptide 1] | 100 | 50 | 240 | 80 | > 360 | 85 | 50.02 ± 42.34 |  |  | 
9 | HSDGIFTDSYSRYRRQLAVRRYLAAVLG-NH2 [Peptide 2] | 120 | 55 | 240 | 80 | > 360 | 85 | 52.63 ± 39.58 |  |  | 
10 | HSDGIFTDSYSRYRRQLAVRRYLAAVLGK-NH2 [Peptide 3] | 120 | 55 | 240 | 80 | > 360 | 85 | 52.13 ± 37.85 |  |  | 
11 | HSDGIFTDSYSRYRRQLAVRRYLAAVLGKR [Peptide 7] | 120 | 60 | > 360 | 80 | > 360 | 75 | 55.05 ± 46.71 |  |  | 
12 | HSDGIFTDSYSRYRRQLAVRRYLAAVLGKR-NH2 [Peptide 5] | 120 | 60 | > 360 | 80 | > 360 | 75 | 54.60 ± 41.05 |  |  | ≥ 360
13 | HSDGIFTDSYSRYRRQLAVRRYLAAVLGR-NH2 [Peptide 4] | 120 | 55 | 240 | 80 | > 360 | 85 | 51.87 ± 37.24 |  |  | 
14 | HSDGIFTDSYSRYRRQLAVRRYLAAVLGRR-NH2 [Peptide 6] | 150 | 65 | > 360 | 80 | > 360 | 75 | 53.71 ± 46.46 |  |  | 
